The source of these data is paper PMC4336329 (PLoS ONE, 2015).

Hit rate of the full screen: of about 310,000 compounds, about 2,200 (0.71%) showed an effect of 50% or more. The effect is printed as a negative number. This is one part of the list.

Chain of human ether-à-go-go-related gene (hERG) potassium channel (Q12809 whole entry, looked up): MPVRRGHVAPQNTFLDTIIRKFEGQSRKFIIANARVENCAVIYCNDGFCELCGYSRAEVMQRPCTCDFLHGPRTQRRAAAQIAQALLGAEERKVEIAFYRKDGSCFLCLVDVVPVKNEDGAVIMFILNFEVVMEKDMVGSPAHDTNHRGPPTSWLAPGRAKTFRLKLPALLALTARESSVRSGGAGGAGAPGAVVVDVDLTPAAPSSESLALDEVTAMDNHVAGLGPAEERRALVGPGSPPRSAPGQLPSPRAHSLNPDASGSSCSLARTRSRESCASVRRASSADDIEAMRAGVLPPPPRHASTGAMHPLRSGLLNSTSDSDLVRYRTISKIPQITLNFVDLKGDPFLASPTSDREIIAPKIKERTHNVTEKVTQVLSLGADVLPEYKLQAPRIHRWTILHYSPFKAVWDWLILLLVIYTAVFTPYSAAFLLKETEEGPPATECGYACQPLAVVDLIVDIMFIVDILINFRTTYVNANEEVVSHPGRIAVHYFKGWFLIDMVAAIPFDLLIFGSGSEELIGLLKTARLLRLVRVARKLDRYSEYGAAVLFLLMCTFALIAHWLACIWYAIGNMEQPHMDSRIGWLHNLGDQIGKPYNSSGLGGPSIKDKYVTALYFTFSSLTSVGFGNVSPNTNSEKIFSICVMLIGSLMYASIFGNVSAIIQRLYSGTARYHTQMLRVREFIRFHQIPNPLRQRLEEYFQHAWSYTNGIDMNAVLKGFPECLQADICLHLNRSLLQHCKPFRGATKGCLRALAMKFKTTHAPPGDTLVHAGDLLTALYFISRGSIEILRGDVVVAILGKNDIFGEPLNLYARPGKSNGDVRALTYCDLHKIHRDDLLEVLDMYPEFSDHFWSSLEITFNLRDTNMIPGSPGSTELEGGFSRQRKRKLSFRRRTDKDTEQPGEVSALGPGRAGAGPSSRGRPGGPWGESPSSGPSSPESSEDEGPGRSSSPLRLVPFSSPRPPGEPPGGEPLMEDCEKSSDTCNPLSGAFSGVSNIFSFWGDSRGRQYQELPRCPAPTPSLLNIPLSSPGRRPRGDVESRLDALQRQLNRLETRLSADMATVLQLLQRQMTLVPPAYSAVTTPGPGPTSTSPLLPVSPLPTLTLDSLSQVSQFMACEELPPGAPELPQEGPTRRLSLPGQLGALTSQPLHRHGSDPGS

This assay concerns the target human ether-à-go-go-related gene (hERG) potassium channel (human, UniProt Q12809). As to the kind of experiment: primary screen, population patch clamp on CHO cells stably expressing hERG.
Turning to `C=C1c2ccccc2NC(=S)N1Cc1ccc2c(c1)OCO2`, the “hERG current change (%, negative = inhibition) at 1uM” value was determined as 19.7%.
Then `COc1ccc(OCC(=O)Nc2cc(OC)ccc2N2CCCCC2)cc1`, with 13.1%; and `Cn1c2c(c(=O)n(C)c1=O)C(NC(=O)C(C)(C)C)(C(F)(F)F)C(=O)N2` (stereo not shown), with 10.5%.
With `COCCOC(=O)c1[nH]c2c(c1C)C(=O)CC(c1ccccc1)C2` (stereo not shown) the figure was 8.09%; with `Cn1c(SCC(=O)NCC2CCCO2)nc2scc(-c3ccccc3)c2c1=O` (stereo not shown), -0.951%; with `CC(O)CSc1nc2c(c(=O)[nH]c(=O)n2C)n1CC(O)COc1ccccc1` (stereo not shown), 11.9%.
Then `CCCN1CCN(C(=O)Cn2ncc3ccccc32)CC1`, with 18.2%; and `O=C(CSc1oc(-c2cccs2)nc1S(=O)(=O)c1ccccc1)NC1CCCCC1`, with 9.67%; and `Cc1ccc(S/C=C\C(=O)c2ccccc2)cc1`, with 4.45%.
Take `CCOc1ncccc1C(=O)NNC(=O)c1cccc(S(=O)(=O)Nc2ccccc2OC)c1`: the “hERG current change (%, negative = inhibition) at 1uM” value amounted to 0.371%.
Then `Cc1ccc(Cc2cc(C)n[nH]c2=O)cc1`, with 27.1%; and `COc1ccc(NC(=S)Nc2ccc(OC)cc2OC)c(OC)c1`, with 17.8%.
With `CCCCN(CC)CCNC(=O)c1cn(-c2ccc(Cl)cc2)c(=O)c2ccccc12` the figure was -81.6%; with `CCOC(=O)Nc1ccc2c(c1)N(C(=O)CN(CC)CC)c1ccccc1CC2.Cl`, 9.02%.
With `O=C(Nc1ccccc1N1CCOCC1)c1ccc(Cl)c(S(=O)(=O)N2CCCC2)c1` the figure was 4.39%; with `Cc1ccc(/C=C2\CCC3=C2OC(N)=C(C#N)C3c2ccc(C)cc2)cc1` (stereo not shown), 13.7%; with `Cc1cc(O)ccc1Nc1nc(-c2sc(N)nc2C)cs1`, -5.27%.
Consider `COc1cc(=O)n(C)c2c(O)cccc12`, for which the “hERG current change (%, negative = inhibition) at 1uM” value stood at 20%.
Then `O=C(NCCOC(=O)c1ccc(Cl)cc1)c1ccc[nH+]c1.[Cl-]`, with 4.8%; and `NNC(=O)c1sc2cc(C(F)(F)F)cnc2c1-c1cccnc1`, with 17%.
With `CCc1ccccc1NC1=CC(=O)CC(C)(C)C1` the figure was 12.2%; with `COc1ccc(C(=O)Nc2cc3c4c(c2)C(C)C(=O)N4CCC3)c(OC)c1` (stereo not shown), 1.24%.
With `CCOC(=O)Cc1csc(NC(=O)/C=C/c2ccc(OC)cc2)n1` the figure was 14.5%.
In the case of `COc1cc(O)c(C(CCN2CCCCC2)c2cc(OC)c(OC)c(OC)c2)c(OC)c1` (stereo not shown), the “hERG current change (%, negative = inhibition) at 1uM” value worked out at 11.6%.
Then `O=S1(=O)C=CC(Nc2cccc(Cl)c2)C1` (stereo not shown), with 15.6%.
Then `O=C(CSc1ncccn1)NCc1ccc(Cl)cc1`, with 7.24%; and `COc1ccccc1N(Cc1cc(=O)[nH]c2ccccc12)C(=O)c1ccc([N+](=O)[O-])cc1`, with 1.95%.
Then `CCOc1ccc(NC(=S)N(CC)Cc2ccccc2)cc1`, with 4.64%; and `COc1ccc(C(=O)c2c(C)oc3ccc(O)c(CN4CCOCC4)c23)cc1`, with -0.447%.
Turning to `CC1=C(C(=O)Nc2ccccc2)C(c2ccco2)C(C#N)=C(SCC(N)=O)N1` (stereo not shown), the “hERG current change (%, negative = inhibition) at 1uM” value is -1.52%.
For the molecule `N#C/C(=N\Nc1ccc(F)cc1)C(=O)C1CC1`, the “hERG current change (%, negative = inhibition) at 1uM” value turned out to be 16.1%.
Then `COc1ccc(S(=O)(=O)N2CCN(C(=O)c3cc(C)oc3C)CC2)cc1OC`, with 7.81%; and `O=C(CCc1ccccc1)Nc1ccccc1F`, with 7.31%; and `Cc1ccc(S(=O)(=O)N(C)CC(=O)N2CCCC2)cc1`, with 4.88%.
Then `CN(C(=O)CSc1ncc(C(F)(F)F)cc1Cl)c1c(N)n(Cc2ccccc2)c(=O)[nH]c1=O`, with 4.38%; and `CCC(=O)N1c2ccc(S(=O)(=O)N3CCN(c4ccc([N+](=O)[O-])cc4)CC3)cc2CC1C` (stereo not shown), with -13.2%.
With `COc1cccc(NC(=O)CNC(=O)c2ccc(F)cc2)c1` the figure was 0.948%; with `CC(C)(O)[C@@H]1CC(=O)[C@]2(C)[C@H](CC[C@@]3(C)[C@H](c4ccoc4)OC(=O)[C@H]4O[C@]432)[C@@]1(C)/C=C\C(=O)O`, 16.1%; with `CC(C)(C)C(=O)NC(=S)NNC(=O)C(c1ccccc1)c1ccccc1`, -1.36%.
Regarding `CSCCC(C(=O)OCC(=O)c1ccc(C)c(C)c1)N1C(=O)c2ccccc2C1=O` (stereo not shown), the “hERG current change (%, negative = inhibition) at 1uM” value is -1.15%.
With `COc1ccc(C)cc1NC(=O)NCc1ccc(F)cc1` the figure was 6.47%; with `CSc1ccccc1NC(=O)Cn1nnc(-c2ccc(S(C)(=O)=O)cc2)n1`, 13.8%.
With `CC(Sc1n[nH]c(N)n1)C(=O)NC1CCCCC1C` (stereo not shown) the figure was 6.82%.
